Data reported in patent US20250270341A1 (Alector, published 2025).

B1: CD98hc.04.046 (2+1 bispecific antibody) (bispecific antibody)
heavy 1: EVRLLESGGGLVQPGGSLRLSCAASGFTFSNYAMGWVRQAPGKGLEWVSAISGSGGSTYYADSVKGRFTTSRDDSKNALYLQMNSLRAEDTAVYYCARGGPGWYAADVWGQGTTVTVSSASTKGPSVFPLAPSSKSTSGGTAALGCLVKDYFPEPVTVSWNSGALTSGVHTFPAVLQSSGLYSLSSVVTVPSSSLGTQTYICNVNHKPSNTKVDKKV[here human IgG1 Fc with changes without letters]GGGGSGGGGSGGGGSQIQLVQSGPVLKKPGETVKISCKASGYTFTNFGMNWVKQAPGKGLKWMGWIDTYTREPTYVDDFKGRFAFSLETSVTTAYLQINDLKNEDSATYFCARGESHWYFDVWGAGTTVTVSSGGSEGKSSGSGSESKSTGGSQIVLTQSPAIMSASLGERVTMTCIVSSSVSSSYLYWYQQKPGSSPKLWIYSTSILASGVPGRFSGSGSGTSYSLTISSMEAEDAATYYCHQYHRSPPTFGGGTKLEIK
heavy 2: EVRLLESGGGLVQPGGSLRLSCAASGFTFSNYAMGWVRQAPGKGLEWVSAISGSGGSTYYADSVKGRFTTSRDDSKNALYLQMNSLRAEDTAVYYCARGGPGWYAADVWGQGTTVTVSS[here human IgG1 constant region with changes without letters]
light: DIQMTQSPSSLSASVGDRVTITCRASQSISSYLNWYQQKPGKAPKLLIYAASSLQSGVPSRFSGSGSGTDFTLTISSLQPEDFATYYCQQADLPAFAFGGGTKVEIKRTVAAPSVFIFPPSDEQLKSGTASVVCLLNNFYPREAKVQWKVDNALQSGNSQESVTEQDSKDSTYSLSSTLTLSKADYEKHKVYACEVTHQGLSSPVTKSFNRGEC
B2: CD98hc.04.054 (2+1 bispecific antibody) (bispecific antibody)
heavy 1: EVRLLESGGGLVQPGGSLRLSCAASGFTFSNYAMGWVRQAPGKGLEWVSAISGSGGSTYYADSVKGRFTTSRDDSKNALYLQMNSLRAEDTAVYYCARGGPGWYAADVWGQGTTVTVSSASTKGPSVFPLAPSSKSTSGGTAALGCLVKDYFPEPVTVSWNSGALTSGVHTFPAVLQSSGLYSLSSVVTVPSSSLGTQTYICNVNHKPSNTKVDKKV[here human IgG1 Fc with changes without letters]GGGGSGGGGSGGGGSQVQLQQSAAELARPGASVKMSCETSGYTFTRYTMNWVKQRPGQGLDWIGYINPSSGYAEYNQKFRGKTTLTADKSSSTAYIQLNSLTSEDSAVYYCVRYDGNYVYWGQGTTLTVSSGGSEGKSSGSGSESKSTGGSDIVMTQSQKFMSTSFGDRVDITCKASQNVGSAVAWYQQKPGQSPKLLIYSASNRYTGVPDRFTGSGSGTDFTLTINNMQSADLADYFCQQYNFYPLTFGAGTKLDLK
heavy 2: EVRLLESGGGLVQPGGSLRLSCAASGFTFSNYAMGWVRQAPGKGLEWVSAISGSGGSTYYADSVKGRFTTSRDDSKNALYLQMNSLRAEDTAVYYCARGGPGWYAADVWGQGTTVTVSS[here human IgG1 constant region with changes without letters]
light: B1 light
B3: CD98hc.04.058 (2+1 bispecific antibody) (bispecific antibody)
heavy 1: EVRLLESGGGLVQPGGSLRLSCAASGFTFSNYAMGWVRQAPGKGLEWVSAISGSGGSTYYADSVKGRFTTSRDDSKNALYLQMNSLRAEDTAVYYCARGGPGWYAADVWGQGTTVTVSSASTKGPSVFPLAPSSKSTSGGTAALGCLVKDYFPEPVTVSWNSGALTSGVHTFPAVLQSSGLYSLSSVVTVPSSSLGTQTYICNVNHKPSNTKVDKKV[here human IgG1 Fc with changes without letters]GGGGSGGGGSGGGGSQVQLQQSGAELVRPGVSVKISCKASGYTFTDHTMHWVKQSHARSLEWIGVISTYFGDASYNPKFKGKATMTVDKSSNTAYMELARLTSEDSAIYYCARVGGRLRLGYYFDYWGQGTTLTVSSGGSEGKSSGSGSESKSTGGSNIMMTQSPSSLAVSAGEKVTMNCKSSQTVLYSSNQKNYLAWYQQKPGQSPKLLIYWASTRESGVPDRFTGSGSGTDFTLTISSVQVEDLAVYYCHQYLSSYTFGGGTKLEIK
heavy 2: EVRLLESGGGLVQPGGSLRLSCAASGFTFSNYAMGWVRQAPGKGLEWVSAISGSGGSTYYADSVKGRFTTSRDDSKNALYLQMNSLRAEDTAVYYCARGGPGWYAADVWGQGTTVTVSS[here human IgG1 constant region with changes without letters]
light: B1 light
B4: CD98hc.04.063 (2+1 bispecific antibody) (bispecific antibody)
heavy 1: EVRLLESGGGLVQPGGSLRLSCAASGFTFSNYAMGWVRQAPGKGLEWVSAISGSGGSTYYADSVKGRFTTSRDDSKNALYLQMNSLRAEDTAVYYCARGGPGWYAADVWGQGTTVTVSSASTKGPSVFPLAPSSKSTSGGTAALGCLVKDYFPEPVTVSWNSGALTSGVHTFPAVLQSSGLYSLSSVVTVPSSSLGTQTYICNVNHKPSNTKVDKKV[here human IgG1 Fc with changes without letters]GGGGSGGGGSGGGGSEVKLEESGGGLVQPGGSMILSCVASGFTFSNSWMNWVRQSPEKGLEWVAEIRLRSNNYATHYAESVKGRFTISRDDSKSTVYLQMNNLRAEDTGIYYCSRGDPGAYWGQGTLVTVSAGGSEGKSSGSGSESKSTGGSDIQMTQSSSYLSVSLGNRVTITCKASDHIKNWLAWFQQKPGNAPRLLISGATILETGVPSRFSGSGSGKDYTLSITSLQTEDVATYYCQQYWSTPYTFGGGTKLEIK
heavy 2: EVRLLESGGGLVQPGGSLRLSCAASGFTFSNYAMGWVRQAPGKGLEWVSAISGSGGSTYYADSVKGRFTTSRDDSKNALYLQMNSLRAEDTAVYYCARGGPGWYAADVWGQGTTVTVSS[here human IgG1 constant region with changes without letters]
light: B1 light
B5: CD98hc.04.064 (2+1 bispecific antibody) (bispecific antibody)
heavy 1: EVRLLESGGGLVQPGGSLRLSCAASGFTFSNYAMGWVRQAPGKGLEWVSAISGSGGSTYYADSVKGRFTTSRDDSKNALYLQMNSLRAEDTAVYYCARGGPGWYAADVWGQGTTVTVSSASTKGPSVFPLAPSSKSTSGGTAALGCLVKDYFPEPVTVSWNSGALTSGVHTFPAVLQSSGLYSLSSVVTVPSSSLGTQTYICNVNHKPSNTKVDKKV[here human IgG1 Fc with changes without letters]GGGGSGGGGSGGGGSQVQLQQPGAELVRPGASVKLSCKASGYTFTSYWMNWVRQRPGQGLEWIGLIDPSDSETHYNQMFKDRATLTVDKSSSTAYMQLSSLTSADPAVYYCARASYGKGYFDYWGQGTTLTVSSGGSEGKSSGSGSESKSTGGSDIVMTQSPSSLAMSVGQKVTMSCKSSQSLLNNINQKNYLAWYQQKPGQSPKLLVYFASTRESGVPDRFIGSGSGTDFTLTINTVQAEDLADYFCQQHYSSPFTFGGGTKLEIK
heavy 2: EVRLLESGGGLVQPGGSLRLSCAASGFTFSNYAMGWVRQAPGKGLEWVSAISGSGGSTYYADSVKGRFTTSRDDSKNALYLQMNSLRAEDTAVYYCARGGPGWYAADVWGQGTTVTVSS[here human IgG1 constant region with changes without letters]
light: B1 light
notes: also called mouse CD98hc.04.064

These binders were tested against T1, huCD98hc ECD Avi-His (human, UniProt P08195 105-529) (assay: ELISA, 1 ug/ml).
T1 construct: biotinylated on the Avi tag where captured on streptavidin; also called Human CD98-AVI-His; Human CD98hc-AVI-His
T1 sequence: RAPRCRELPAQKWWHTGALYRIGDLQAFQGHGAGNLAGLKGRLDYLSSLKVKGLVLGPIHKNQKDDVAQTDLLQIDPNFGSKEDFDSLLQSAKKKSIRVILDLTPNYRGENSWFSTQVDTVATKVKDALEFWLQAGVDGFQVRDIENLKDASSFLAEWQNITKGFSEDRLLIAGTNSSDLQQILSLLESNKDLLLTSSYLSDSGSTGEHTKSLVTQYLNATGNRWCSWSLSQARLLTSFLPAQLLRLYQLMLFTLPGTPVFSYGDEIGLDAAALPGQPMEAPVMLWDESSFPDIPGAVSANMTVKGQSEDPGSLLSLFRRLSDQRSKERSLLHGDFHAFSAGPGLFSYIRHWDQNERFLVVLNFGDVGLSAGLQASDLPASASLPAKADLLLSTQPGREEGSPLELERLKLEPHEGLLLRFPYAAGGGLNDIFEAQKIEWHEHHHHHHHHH
For B1, the “ELISA fold-change relative to isotype hIgG” value was 16.2.
For B2, the “ELISA fold-change relative to isotype hIgG” value was 25.
In the case of B3, the “ELISA fold-change relative to isotype hIgG” value is reported as 26.7.
B4 was tested, and the “ELISA fold-change relative to isotype hIgG” value was 11.1.
With B5 the “ELISA fold-change relative to isotype hIgG” value was 26.5.

These binders were tested against T2, Human TfR-AVI-His (control) (human, UniProt P02786) (assay: ELISA, 1 ug/ml).
T2 construct: control protein; also called Avi-His-tagged human TfR; human transferrin receptor
T2 sequence (P02786 89-760 limits assumed): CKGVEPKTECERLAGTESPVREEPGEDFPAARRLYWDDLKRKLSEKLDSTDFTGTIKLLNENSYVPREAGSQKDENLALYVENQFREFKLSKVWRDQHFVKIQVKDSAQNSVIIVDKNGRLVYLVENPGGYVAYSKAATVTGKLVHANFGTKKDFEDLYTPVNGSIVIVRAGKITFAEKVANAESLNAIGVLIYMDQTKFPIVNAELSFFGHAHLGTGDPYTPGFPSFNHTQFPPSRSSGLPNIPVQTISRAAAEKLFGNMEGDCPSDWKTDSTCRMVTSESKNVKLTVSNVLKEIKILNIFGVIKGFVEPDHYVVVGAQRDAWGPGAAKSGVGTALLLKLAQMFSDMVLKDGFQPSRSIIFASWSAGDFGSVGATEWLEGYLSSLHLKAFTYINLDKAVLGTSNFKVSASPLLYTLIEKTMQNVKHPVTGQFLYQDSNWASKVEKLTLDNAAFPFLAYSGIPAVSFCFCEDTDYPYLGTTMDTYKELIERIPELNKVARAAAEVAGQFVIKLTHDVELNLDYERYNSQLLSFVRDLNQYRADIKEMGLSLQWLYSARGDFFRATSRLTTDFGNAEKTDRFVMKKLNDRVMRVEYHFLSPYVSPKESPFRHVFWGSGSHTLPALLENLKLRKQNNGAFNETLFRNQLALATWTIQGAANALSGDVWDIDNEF
B1 was tested, and the “ELISA fold-change relative to isotype hIgG” value was 1.1.
For B2, the “ELISA fold-change relative to isotype hIgG” value was 1.2.
B4 was tested, and the “ELISA fold-change relative to isotype hIgG” value was 1.1.
For B5, the “ELISA fold-change relative to isotype hIgG” value was 1.1.

Target: T3, Cyno CD98hc ECD Avi-His (cynomolgus macaque, UniProt P08195 105-529 (human entry))
T3 construct: biotinylated on the Avi tag where captured on streptavidin; also called Cyno CD98-AVI-His; Cyno CD98hc-AVI-His
T3 chain: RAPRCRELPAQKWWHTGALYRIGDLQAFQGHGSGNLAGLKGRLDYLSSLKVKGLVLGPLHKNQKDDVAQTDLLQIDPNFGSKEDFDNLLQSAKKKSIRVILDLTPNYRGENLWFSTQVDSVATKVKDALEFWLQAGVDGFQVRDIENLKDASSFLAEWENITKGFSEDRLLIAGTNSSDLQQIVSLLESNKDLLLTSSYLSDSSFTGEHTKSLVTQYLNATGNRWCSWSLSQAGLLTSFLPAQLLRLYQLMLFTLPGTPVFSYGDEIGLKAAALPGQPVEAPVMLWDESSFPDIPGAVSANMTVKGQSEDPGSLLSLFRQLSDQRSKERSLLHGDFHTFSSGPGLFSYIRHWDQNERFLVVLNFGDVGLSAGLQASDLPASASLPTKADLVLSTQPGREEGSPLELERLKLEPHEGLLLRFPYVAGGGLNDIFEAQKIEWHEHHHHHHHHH
Assay: ELISA, 1 ug/ml
In the case of B1, the “ELISA fold-change relative to isotype hIgG” value is reported as 17.2.
B2 was tested, and the “ELISA fold-change relative to isotype hIgG” value was 30.7.
With B4 the “ELISA fold-change relative to isotype hIgG” value was 9.1.
B5 was tested, and the “ELISA fold-change relative to isotype hIgG” value was 17.3.

These binders were tested against T4, muCD98hc ECD Avi-His (mouse, UniProt P10852 100-526) (assay: ELISA, 1 ug/ml).
T4 construct: biotinylated on the Avi tag where captured on streptavidin; also called Mouse CD98-AVI-His; Mouse CD98hc-AVI-His
T4 sequence: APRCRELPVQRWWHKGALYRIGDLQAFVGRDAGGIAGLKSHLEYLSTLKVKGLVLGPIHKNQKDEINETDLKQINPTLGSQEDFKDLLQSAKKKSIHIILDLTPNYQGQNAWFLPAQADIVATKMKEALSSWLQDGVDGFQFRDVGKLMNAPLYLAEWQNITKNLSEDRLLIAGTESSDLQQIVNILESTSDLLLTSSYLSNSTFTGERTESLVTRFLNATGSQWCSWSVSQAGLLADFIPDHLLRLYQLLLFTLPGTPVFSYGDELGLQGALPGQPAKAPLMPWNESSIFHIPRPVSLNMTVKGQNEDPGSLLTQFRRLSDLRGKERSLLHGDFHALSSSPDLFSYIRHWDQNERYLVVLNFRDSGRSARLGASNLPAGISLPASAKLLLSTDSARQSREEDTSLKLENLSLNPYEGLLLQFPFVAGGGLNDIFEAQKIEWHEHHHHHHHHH
With B1 the “ELISA fold-change relative to isotype hIgG” value was 1.1.
B2 was tested, and the “ELISA fold-change relative to isotype hIgG” value was 1.4.
With B3 the “ELISA fold-change relative to isotype hIgG” value was 3.9.
In the case of B4, the “ELISA fold-change relative to isotype hIgG” value is reported as 1.2.
In the case of B5, the “ELISA fold-change relative to isotype hIgG” value is reported as 1.1.

Target: T3, Cyno CD98hc ECD Avi-His
Assay: ELISA, 1 ug/ml; ELISA, biotinylated cyno CD98hc captured on streptavidin plate, antibody 1 µg/ml; fold-change over isotype hIgG
Description: To determine binding retention of reformatted 2+1 anti-CD98hc bispecific antibodies by ELISA, high binding ELISA plates (Thermo Fisher) were coated with streptavidin (1 μg/ml, Thermo Fisher) overnight at 4° C. Plates were then washed three times with phosphate buffered saline with 0.05% tween-20 (PBST) and incubated with block buffer (PBS+1% BSA, 1 h, room temperature). Plates were washed three times again with PBST and incubated with biotinylated human, cyno, and mouse CD98hc and an irrelevant antigen, human transferrin receptor (1 μg/ml, 1 h, room temperature). Plates were washed three times again with PBST and incubated with anti-CD98hc antibodies (1 μg/ml, 1 h, room temperature). Plates were washed three times again with PBST and incubated with a secondary detection antibody, anti-human horseradish peroxidase conjugated antibody (1:5000 dilution, 30 min, room temperature). Plates were washed three times one last time and incubated with TMB-ELISA Substrate Solution (Thermo Fisher) and then quenched with H₂SO₄. Anti-CD98hc binding was then analyzed by quantifying optical density at 450 nm (OD₄₅₀) using the SpectraMax M5 (Molecular Devices). The binding characteristics of the various 2+1 anti-CD98hc bispecific antibodies to CD98hc (human, cyno, mouse) and control human TfR are summarized below in Table 16, shown as fold-change relative to isotype hIgG.
With B3 the “ELISA fold-change relative to isotype hIgG” value was 16.8.
